Measurements published in publication PMC3335838.
No constants are given. Whether binding was seen depends on the method and setting. Some entries that bind do so weakly or less than the wild type. Where a sequence is shown, tags or fusion partners need not be part of it.

T1: DRB4 (Double-stranded RNA Binding protein 4), full length, yeast two-hybrid fusion (Arabidopsis) (UniProt Q8H1D4)
T1 sequence: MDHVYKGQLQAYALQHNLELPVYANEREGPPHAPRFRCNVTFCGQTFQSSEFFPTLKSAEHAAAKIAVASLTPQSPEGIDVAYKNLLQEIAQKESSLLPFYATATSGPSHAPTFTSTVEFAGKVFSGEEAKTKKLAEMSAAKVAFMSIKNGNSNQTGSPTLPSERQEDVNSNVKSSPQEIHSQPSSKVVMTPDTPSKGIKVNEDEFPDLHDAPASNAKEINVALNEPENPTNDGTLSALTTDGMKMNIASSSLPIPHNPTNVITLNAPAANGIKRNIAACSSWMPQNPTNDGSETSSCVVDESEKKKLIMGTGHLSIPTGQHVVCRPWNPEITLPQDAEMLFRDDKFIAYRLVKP

T2: APC10/DOC1, yeast two-hybrid fusion (Arabidopsis) (UniProt Q9ZPW2)
T2 sequence: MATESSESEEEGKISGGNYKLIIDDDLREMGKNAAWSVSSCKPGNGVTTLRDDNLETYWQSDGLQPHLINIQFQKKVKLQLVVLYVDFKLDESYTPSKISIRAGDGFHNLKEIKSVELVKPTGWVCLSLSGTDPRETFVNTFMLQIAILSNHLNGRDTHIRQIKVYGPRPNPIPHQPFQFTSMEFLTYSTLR

B1: APC10/DOC1, yeast two-hybrid fusion (protein, UniProt Q9ZPW2 1-192)
chain: T2 sequence
B2: CDC20-1, yeast two-hybrid fusion (protein, UniProt Q9SZA4 1-457)
chain: MDAGMNNTSSHYKTQARCPLQEHFLPRKPSKENLDRFIPNRSAMNFDYAHFALTEGRKGKDQTAAVSSPSKEAYRKQLAETMNLNHTRILAFRNKPQAPVELLPSNHSASLHQQPKSVKPRRYIPQTSERTLDAPDIVDDFYLNLLDWGSANVLAIALDHTVYLWDASTGSTSELVTIDEEKGPVTSINWAPDGRHVAVGLNNSEVQLWDSASNRQLRTLKGGHQSRVGSLAWNNHILTTGGMDGLIINNDVRIRSPIVETYRGHTQEVCGLKWSGSGQQLASGGNDNVVHIWDRSVASSNSTTQWLHRLEEHTSAVKALAWCPFQANLLATGGGGGDRTIKFWNTHTGACLNSVDTGSQVCSLLWSKNERELLSSHGFTQNQLTLWKYPSMVKMAELTGHTSRVLYMAQSPDGCTVASAAGDETLRFWNVFGVPETAKKAAPKAVSEPFSHVNRIR
B3: DRB1, yeast two-hybrid fusion (protein, UniProt O04492 1-419)
chain: MTSTDVSSGVSNCYVFKSRLQEYAQKYKLPTPVYEIVKEGPSHKSLFQSTVILDGVRYNSLPGFFNRKAAEQSAAEVALRELAKSSELSQCVSQPVHETGLCKNLLQEYAQKMNYAIPLYQCQKVETLGRVTQFTCTVEIGGIKYTGAATRTKKDAEISAGRTALLAIQSDTKNNLANYNTQLTVLPCEKKTIQAAIPLKETVKTLKARKAQFKKKAQKGKRTVAKNPEDIIIPPQPTDHCQNDQSEKIETTPNLEPSSCMNGLKEAAFGSVETEKIETTPNLEPPSCMNGLKEAAFGSVETEKIETTPNLEPPSCMNGLKEAAFGSVETEKIETTPNLEPSSCMNGLKEAAFGSVETEKIETTPNLEPPSCMNGLKEAAFGSVETEKIETTPNLESSSCMSGLKEAAFGSVETEASHA
B4: DRB2, yeast two-hybrid fusion (protein, UniProt Q9SKN2 1-434)
chain: MYKNQLQELAQRSCFNLPSYTCIREGPDHAPRFKATVNFNGEIFESPQYCSTLRQAEHSAAEVALNALSNRGPSHSLAARILDETGVYKNLLQEIAQRVGAPLPRYTTFRSGLGHQPVFTGTVELAGITFTGDPAKNKKQAEKNAAMAAWSSLKQLAKETSSSMPEPENIDELEQVIIARALINYRIKENIGTGSSSSAPVPFAKKFFMQNLRPTSPQPSPATTSRILPFICPKQPSRSSRSSLAATSGIDRIMAAALESRSYQRPQQRFANPPYVPMRQFRSQCHGMAPPVTIRTAVPVFSAPPMPPPPCTNNTQLPSSVYVPSLMRTAPPVRIAPPVTIRTAVPVFASAPPVRIRTAVKPTVEAGETRISSVQEKESIPVLPDSLEIGVEGSTITITDCEKTASKETERAEFKDSSKGEPETARERLENLKI
B5: DRB3, yeast two-hybrid fusion (protein, UniProt Q9LJF5 1-359)
chain: MYKNQLQELAQRSCFSLPSYTCTREGPDHAPRFKASVNFNGEIFESPTYCSTLRQAEHSAAEVALSALSSKGPSKSLTARVLDETGIYKNLLQETAHRAGLDLPVYTSVRSGPGHIPTFSCTVELAGMSFNGESAKTKKQAEKNAAIAAWFSLRKMPRLDPLRGEEKEQEIVARVLSRFRPKEVKRREPNQSRRRTVIRTIRQNTTTTTTTTGDLLCEKLRSINLYTNEASSSSPPPQRFWPSRTNLTQEQSKVKSLLEKCQEYAEKKQSLDDPKPEMRIKTSSPSPLSSSVERNCYSKLLPFPSFVLNHQKLAPAVHIRSVIPVCSAPPPKPNPNPNSSPFITRELGNGSQEKKSLPN
B6: DRB5, yeast two-hybrid fusion (protein, UniProt Q8GY79 1-393)
chain: MYKNQLQELAQRSCFNLPSYTCIREGPDHAPRFKASVNFNGEIFESPTYCSTLRQAEHAAAEVSLNVLSSRVPSKSLTAKILDETGIYKNLLQETAHRAGLDLPMYTSVRSGSCHFPGFSCTVELAGMTFTGESAKTKKQAEKNAAIAAWSSLKKMSSLDSQDEEKEQEAVARVLSRFKPKEVRRRETTNQWRRRTSQQDSNKDLLIERLRWINLLTNQASSSSSTSTPNQHKNSSFISLIPPPPPPKSSKILPFIQQYKDRSSQEAKTETATEMINSKAKVNETSTRLSKQMPFSDMNRYNFVGGCSVNPYSLAPAVQMRSVIPVFAAPPPKPNPNLNPSSLSSSVNEFTSSNNSCSVLNTPGLGGQEKKNLTREMIKLGSESRILDQTHDS
B7: CDC20-2, yeast two-hybrid fusion (protein, UniProt Q9S7I8 1-447)
chain: MDAGLNRCPLQEHFLPRKNSKENLDRFIPNRSAMNFDYAHFALTEERKGKDQSATVSSPSKEAYRKQLAETMNLNHTRILAFRNKPQAPVELLPSNHSASLHQQPKSVKPRRYIPQTSERTLDAPDIVDDFYLNLLDWGSANVLAIALDHTVYLWDASTGSTSELVTIDEEKGPVTSINWAPDGRHVAVGLNNSEVQLWDSASNRQLRTLKGGHQSRVGSLAWNNHILTTGGMDGLIINNDVRIRSPIVETYRGHTQEVCGLKWSGSGQQLASGGNDNVVHIWDRSVASSNSTTQWLHRLEEHTSAVKALAWCPFQANLLATGGGGGDRTIKFWNTHTGACLNSVDTGSQVCSLLWSKNERELLSSHGFTQNQLTLWKYPSMVKMAELTGHTSRVLYMAQSPDGCTVASAAGDETLRFWNVFGVPETAKKAAPKAVAEPFSHVNRIR
B8: CDC20-3, yeast two-hybrid fusion (protein, UniProt Q9S7H3 1-442)
chain: MDSDTCTVPDHFLPRKLSKQNLDRFIPNRSAMDFDFANYALTQGRKRNVDEITSASRKAYMTQLAVVMNQNRTRILAFRNKPKALLSSNHSDSPHQNPKSVKPRRYIPQNSERVLDAPGLMDDFYLNLLDWGSANVLAIALGDTVYLWDASSGSTSELVTIDEDKGPVTSINWTQDGLDLAVGLDNSEVQLWDFVSNRQVRTLIGGHESRVGSLAWNNHILTTGGMDGKIVNNDVRIRSSIVGTYLGHTEEVCGLKWSESGKKLASGGNYNVVHIWDHRSVASSKPTRQWLHRFEEHTAAVRALAWCPFQATLLATGGGVGDGKIKFWNTHTGACLNSVETGSQVCSLLWSQRERELLSSHGFTQNQLTLWKYPSMSKMAELNGHTSRVLFMAQSPNGCTVASAAGDENLRLWNVFGEPPKTTKKAASKNYLELFSHVNSLR
B9: CDC20-4, yeast two-hybrid fusion (protein, UniProt Q4PSE4 1-444)
chain: MDSGMRATCTVPEHFLPRKLSKQNLDRFIPNRSAKDFDFANYALTQGSKRNLDEVTSASRKAYMTQLAVVMNQNRTRILAFRNKPKSLLSTNHSDSPHQNPKPVKPRRYIPQNSERVLDAPGLRDDFSLNLLDWGSANVLAIALGDTVYLWDASSGSTSELVTIDEDKGPVTSINWTQDGLDLAVGLDNSEVQLWDCVSNRQVRTLRGGHESRVGSLAWDNHILTTGGMDGKIVNNDVRIRSSIVETYLGHTEEVCGLKWSESGNKQASGGNDNVVHIWDRSLASSKQTRQWLHRFEEHTAAVRALAWCPFQASLLATGGGVGDGKIKFWNTHTGACLNSVETGSQVCSLLWSQSERELLSSHGFTQNQLTLWKYPSMSKMAELNGHTSRVLFMAQSPNGCTVASAAGDENLRLWNVFGEPPKTTKKAASKKYPELFSHVNSLR
B10: CCS52A1, yeast two-hybrid fusion (protein, UniProt Q8L3Z8 1-483)
chain: MEEEDPTASNVITNSNSSSMRNLSPAMNTPVVSLESRINRLINANQSQSPSPSSLSRSIYSDRFIPSRSGSNFALFDLSPSPSKDGKEDGAGSYATLLRAAMFGPETPEKRDITGFSSSRNIFRFKTETHRSLNSFSPFGVDDDSPGVSHSGPVKAPRKVPRSPYKVLDAPALQDDFYLNLVDWSAQNVLAVGLGNCVYLWNACSSKVTKLCDLGAEDSVCSVGWALRGTHLAVGTSTGKVQIWDASRCKRTRTMEGHRLRVGALAWGSSVLSSGSRDKSILQRDIRCQEDHVSKLAGHKSEVCGLKWSYDNRELASGGNDNRLFVWNQHSTQPVLKYSEHTAAVKAIAWSPHVHGLLASGGGTADRCIRFWNTTTNTHLSSIDTCSQVCNLAWSKNVNELVSTHGYSQNQIIVWKYPTMSKIATLTGHTYRVLYLAVSPDGQTIVTGAGDETLRFWNVFPSPKSQNTDSEIGSSFFGRTTIR
B11: CCS52A2, yeast two-hybrid fusion (protein, UniProt Q8VZS9 1-475)
chain: MEEDESTTPKKKSDSQLNLPPSMNRPTVSLESRINRLIDSNHYHSPSKPIYSDRFIPSRSGSNFALFDLASSSPNKKDGKEDGAGSYASLLKTALFGPVTPEKSDVVNGFSPSGNIFRFKTETQRSLNLYPPFDSDVVSGVSPSPVKSPRKILRSPYKVLDAPALQDDFYLNLVDWSAQNVLAVGLGNCVYLWNACSSKVTKLCDLGVDETVCSVGWALRGTHLAIGTSSGTVQIWDVLRCKNIRTMEGHRLRVGALAWSSSVLSSGSRDKSILQRDIRTQEDHVSKLKGHKSEICGLKWSSDNRELASGGNDNKLFVWNQHSTQPVLRFCEHAAAVKAIAWSPHHFGLLASGGGTADRCIRFWNTTTNTHLNCVDTNSQVCNLVWSKNVNELVSTHGYSQNQIIVWKYPTMSKLATLTGHSYRVLYLAVSPDGQTIVTGAGDETLRFWNVFPSPKSQSRESEIGALSFGRTTIR
B12: CCS52B, yeast two-hybrid fusion (protein, UniProt Q8LPL5 1-481)
chain: MASPQSTKTGLNLPAGMNQTSLRLETFSSSFRGISSLSSPSKSTCSDRFIPCRSSSRLHAFDLQDKEPTTPVKEGGNEAYSRLLKSELFGSDFASPLLSPAGGQGSASSPMSPCTNMLRFKTDRSNSSPSSPFSPSILGNDNGHSSDSSPPPKPPRKVPKTPHKVLDAPSLQDDFYLNVVDWSSQNVLAVGLGTCVYLWTASNSKVTKLCDLGPNDSVCSVQWTREGSYISIGTSHGQVQVWDGTQCKRVRTMGGHQTRTGVLAWNSRILSSGSRDRNILQHDIRVQSDFVSKLVGHKSEVCGLKWSHDDRELASGGNDNQLLVWNNHSQQPILKLTEHTAAVKAITWSPHQSSLLASGGGTADRCIRFWNTTNGNQLNSIDTGSQVCNLAWSKNVNEIVSTHGYSQNQIMLWKYPSMSKVATLTGHSMRVLYLATSPDGQTIVTGAGDETLRFWNVFPSVKMQTPVKDTGLWSLGRTQIR

What was measured:
[1] = biological target: T1, DRB4 (Double-stranded RNA Binding protein 4), full length, yeast two-hybrid fusion (Arabidopsis); experiment: two-hybrid; pair-wise, cross-mating of S. cerevisiae PJ69-4a and PJ69-4 alpha; diploids on SD-LW, interactions selected on -LWA; 28°C for 3 days (Figure 2)
[2] = biological target: T2, APC10/DOC1, yeast two-hybrid fusion (Arabidopsis); experiment: as above

Binder	binding [1]	binding [2]
B1	binds	–
B2	no binding	–
B3	–	no binding
B4	–	no binding
B5	–	no binding
B6	–	no binding
B7	no binding	–
B8	no binding	–
B9	no binding	–
B10	no binding	–
B11	no binding	–
B12	no binding	–
